Test results: publication PMC4336329 (PLoS ONE, 2015)
Among all 310,000 compounds or so, about 14,000 (4.5%) showed an effect of 50% or more. The effect is printed as a negative number. The list shows a part of the results.

Biological target: human ether-à-go-go-related gene (hERG) potassium channel (human, UniProt Q12809)
Experiment: primary screen, population patch clamp on CHO cells stably expressing hERG
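Note: peak tail current of the secondary pulse compared with the same well before compound.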

Sequence of human ether-à-go-go-related gene (hERG) potassium channel (Q12809 whole entry, looked up): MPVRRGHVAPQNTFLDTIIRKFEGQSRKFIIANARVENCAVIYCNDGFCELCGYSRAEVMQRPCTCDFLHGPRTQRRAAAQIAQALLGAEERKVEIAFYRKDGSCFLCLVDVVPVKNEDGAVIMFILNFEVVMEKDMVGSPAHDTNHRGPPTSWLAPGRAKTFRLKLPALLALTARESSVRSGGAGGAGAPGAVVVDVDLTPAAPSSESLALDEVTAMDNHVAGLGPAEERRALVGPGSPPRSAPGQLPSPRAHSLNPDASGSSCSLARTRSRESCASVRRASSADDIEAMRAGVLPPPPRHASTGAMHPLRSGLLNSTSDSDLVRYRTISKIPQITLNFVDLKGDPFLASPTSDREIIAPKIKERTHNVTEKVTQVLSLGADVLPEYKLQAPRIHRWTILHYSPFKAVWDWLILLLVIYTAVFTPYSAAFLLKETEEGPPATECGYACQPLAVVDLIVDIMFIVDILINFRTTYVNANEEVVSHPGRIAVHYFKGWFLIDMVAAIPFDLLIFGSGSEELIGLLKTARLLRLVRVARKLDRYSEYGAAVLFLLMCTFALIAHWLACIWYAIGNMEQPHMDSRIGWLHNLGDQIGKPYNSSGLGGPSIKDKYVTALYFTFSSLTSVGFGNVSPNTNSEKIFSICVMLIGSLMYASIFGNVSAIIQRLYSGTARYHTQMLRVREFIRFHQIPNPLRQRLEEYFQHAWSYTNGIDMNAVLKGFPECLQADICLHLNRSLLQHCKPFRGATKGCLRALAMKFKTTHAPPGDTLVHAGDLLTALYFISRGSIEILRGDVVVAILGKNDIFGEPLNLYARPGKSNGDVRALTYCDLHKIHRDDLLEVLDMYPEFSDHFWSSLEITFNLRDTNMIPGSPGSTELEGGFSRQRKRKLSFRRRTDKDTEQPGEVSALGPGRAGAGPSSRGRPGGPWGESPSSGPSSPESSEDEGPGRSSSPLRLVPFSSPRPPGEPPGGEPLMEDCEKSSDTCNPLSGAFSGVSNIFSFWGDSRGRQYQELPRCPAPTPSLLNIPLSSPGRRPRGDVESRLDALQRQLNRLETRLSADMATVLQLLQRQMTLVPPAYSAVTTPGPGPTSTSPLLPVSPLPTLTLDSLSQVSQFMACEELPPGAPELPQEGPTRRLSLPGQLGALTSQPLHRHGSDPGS

Row | Structure (SMILES) | hERG current change (%, negative = inhibition) at 10uM
1 | CN(C)S(=O)(=O)c1cccc(NC(=S)N2CCc3ccccc32)c1 | -15.3%
2 | CSc1ccccc1NC(=O)NCCCl | 14.2%
3 | CCOC(=O)c1c(C)[nH]c(N=Nc2ccccc2C)c1C | 11%
4 | CCOC(=O)Cc1[nH]nc2c1C(c1cc(OC)ccc1OC)C(C#N)=C(N)O2 (centres unmarked) | 4.47%
5 | O=[N+]([O-])c1cc(F)c(N2CCCC2)cc1Br | 13.7%
6 | Cc1ccc(N(CC(=O)NCC2CCCO2)S(C)(=O)=O)cc1Cl (centres unmarked) | 10.8%
7 | Cn1c(=O)n(Cc2ccccc2)c(=O)c2c1nc(NCC1CCCO1)n2Cc1ccccc1 (centres unmarked) | -12.3%
8 | Nc1nc(Sc2ccc([N+](=O)[O-])cc2[N+](=O)[O-])n[nH]1 | 14%
9 | COc1ccc(-c2csc(-c3cccnc3)n2)cc1C | -3.79%
10 | COc1ccc(S(=O)(=O)N2CCN(CC(O)COc3ccc(CC#N)cc3)CC2)cc1OC (centres unmarked) | -21.5%
11 | COC(=O)c1cc(-c2cc(OC)ccc2OC)nc2c1c(=O)n(C)c(=O)n2Cc1ccccc1 | 18.1%
12 | COC(=O)c1cc(NC(=O)c2cc(-c3ccc(OC)cc3)oc2C(F)(F)F)ccc1N1CCOCC1 | -19.1%
13 | Cc1cc(C(=O)C(=O)N(C)C)c(C)n1-c1ccc(Cl)c(Cl)c1 | -28.9%
14 | CCOC(=O)CCSc1nnc(-c2cccnc2)n1-c1ccccc1OC | -7.86%
15 | COc1ccc(NC(=S)N(CCc2c(C)[nH]c3ccccc23)Cc2ccco2)cc1 | 0.208%
16 | COc1ccc(CCNC(=O)C(=O)c2c[nH]c3ccccc23)cc1OC | 2.33%
17 | CC1Cc2ccccc2N1C(=O)Cn1cnc2c1c(=O)n(C)c(=O)n2C (centres unmarked) | -8.03%
18 | CC(C)(C)c1cc(=O)n(-c2ccccc2)[nH]1 | 20.8%
19 | CCOc1cccc(CNc2ccc(O)cc2)c1OCc1ccc(Cl)cc1 | 10.3%
20 | CCNC(=S)N1C2CCC1CC(NC(=O)NC1CCCCC1)C2 (centres unmarked) | -2.68%
21 | Cc1c(NC(=O)C(C)OC(=O)CNC(=O)c2ccccc2)c(=O)n(-c2ccccc2)n1C (centres unmarked) | -7.12%
22 | CC(NC(=O)c1cc(S(=O)(=O)N(C)C)ccc1N1CCCC1)C1CC2CCC1C2 (centres unmarked) | -7.29%
23 | Cc1nc2ccc(NC(=O)COc3ccccc3[N+](=O)[O-])cc2s1 | 23%

Row | Structure (SMILES) | hERG current change (%, negative = inhibition) at 10uM
24 | CCOC(=O)Nc1sc2nc(C)cc(C)c2c1-n1cccc1 | 9.51%
25 | CCCCCCCC(=O)NNC(=O)CCC(=O)O | 9.3%
26 | COc1cc(NC(=O)c2ccc(Br)o2)c(C(=O)O)cc1OC | 20.8%
27 | Cc1cccc(-c2c(NC(=O)c3ccco3)oc3c(C)cccc3c2=O)c1 | 18.7%
28 | CN(C)C=Nc1nonc1-c1ncn[nH]1 | 6.57%
29 | Cc1ccccc1C(=NC(=O)c1ccccc1)c1ccccc1 | -9.42%
30 | NC(=O)C1CCN(C(=O)CCc2ccsc2)CC1 | 11.9%
31 | Nc1nc2ccc(Cl)cc2c2nc(-c3ccco3)nn12 | 6.59%
32 | CCOc1ccc(-n2c(SCC(=O)NCc3ccco3)nc3c([nH]c4ccccc43)c2=O)cc1 | 0.926%
33 | CCOC(=O)CCC(=O)Nc1ccccc1C(N)=O | 7.17%
34 | COc1ccc(CNC(=O)C/C(C)=N/NC(=O)Cc2ccc(OC)cc2)cc1 | 3.39%
35 | C=CCN=C(NC#N)SCCc1ccccc1 | 1.24%
36 | CCOc1ccc(S(=O)(=O)N2CCC(C(=O)NCCc3ccccc3)CC2)cc1 | 29.1%
37 | O=C1CCCC(O)=C1N=Nc1c(Cl)cc(C(F)(F)F)cc1Cl | 15.4%
38 | COc1ccccc1N=Cc1c(O)c2ccccc2oc1=O | -5.8%
39 | O=C(NC1CCC(O)CC1)C1CCN(S(=O)(=O)c2c(Cl)cccc2Cl)CC1 (centres unmarked) | -2.42%
40 | COCCNC(=S)NNC(=O)c1cc(-c2cccnc2)nc2ccccc12 | 17.7%
41 | Cc1cc(C)c(NC(=O)C2C3/C=C\CCCCC32)c(C)c1 (centres unmarked) | 5.08%
42 | C=CCOc1ccccc1CNCCCN1CCOCC1.Cl | 28.6%
43 | Cc1cccc(C)c1NC(=O)CS(=O)CC(=O)NC1CCCc2ccccc21 (centres unmarked) | 7.3%
44 | Cc1[nH]c2ccccc2c1C(=O)CSc1nnc(C2CC2)o1 | 6.93%
45 | CN(c1ccccc1)S(=O)(=O)c1cccc(NC(=O)COC(=O)C2CCCCC2)c1 | 13.7%
46 | COc1ccc(/C=N/NC(=O)CN(Cc2ccccc2)S(=O)(=O)c2ccc3c(c2)OCCO3)cc1 | 0.168%

Row | Structure (SMILES) | hERG current change (%, negative = inhibition) at 10uM
47 | Cc1ccccc1/C=N\NC(=O)c1ccc(Cn2cccn2)o1 | 4.98%
48 | CCC[N+](CC#Cc1ccccc1)(CCC)CC(=O)OCC | -1.25%
49 | CCn1ncc(CNC(=O)C2(C)CC2(Br)Br)c1C (centres unmarked) | 23.3%
50 | CCOC1OC(=O)C(Cl)=C1Nc1ccccc1C (centres unmarked) | 7.7%
51 | O=C(Nc1ccccc1)N1CCN(CCc2ccccc2)CC1 | -14.5%
52 | Cc1ccc(OCCCCN2CCCCC2)cc1 | -12.1%
53 | COc1cc(C(=O)N(Cc2ccc(F)cc2)C2CCS(=O)(=O)C2)cc(OC)c1OC (centres unmarked) | -9.26%
54 | COc1ccc(NC(=O)N[C@@H](CCSC)C(=O)O)cc1OC | -0.994%
55 | COc1ccc(OCCCn2cccc2/C=C2/C(=N)N3OC(C)=CC3=NC2=O)cc1 | -8.31%
56 | CCOC(=O)c1ccc(N2C(=O)[C@@H](c3ccccc3)[C@H]2c2ccccc2)cc1 | 17.7%
57 | COc1ccc(CC(=O)Oc2cc(C)[nH]c(=O)c2[N+](=O)[O-])cc1 | -0.383%
58 | COc1nc(C)cc(C)c1S(=O)(=O)c1ccccc1C | 7.41%
59 | CCN1C(=O)C(CC(=O)Nc2ccc(F)cc2)N(CCCN2CCN(c3ccc(F)cc3)CC2)C1=S (centres unmarked) | -62.2%
60 | COCCn1nnnc1C(c1ccccc1OC)N1CCc2ccccc2C1 (centres unmarked) | -14.4%
61 | Cc1c(NC(=S)NC(=O)c2ccc(Br)o2)c(=O)n(-c2ccccc2)n1C | 3.89%
62 | CC(C)(C)c1cc(CCC(=O)N2CCC2)cc(C(C)(C)C)c1O | -6.37%
63 | CCc1c(C)c(C#N)c2nc3ccccc3n2c1NCC1CCCO1 (centres unmarked) | -28.6%
64 | Cc1ccc(N2CCN(C(=O)c3ccccc3F)CC2)c(C)c1 | -8.81%
65 | COc1ccc(C2C(C(=O)c3cccs3)=C(O)C(=O)N2c2nnc(C)s2)cc1OC (centres unmarked) | 1.32%
66 | COc1ccccc1NC(=O)N1CCN(c2ncccn2)CC1 | 6.96%
67 | O=C(CSc1ncn[nH]1)Nc1nc(-c2ccccc2)ns1 | -7.44%
68 | O=C(COC(=O)/C=C/c1ccc(C(F)(F)F)cc1)NCC1CCCCC1 | 0.926%
69 | CCOc1cc(NC(=O)c2ccccn2)c(OCC)cc1NC(=O)c1ccccc1 | 24.9%

Row | Structure (SMILES) | hERG current change (%, negative = inhibition) at 10uM
70 | CCOc1cccc(C2/C(=C(\O)c3ccc4c(c3)OCCO4)C(=O)C(=O)N2Cc2ccncc2)c1 (centres unmarked) | 14.7%
71 | CCC(C(=O)NC(C)CCc1ccccc1)n1nc(C)n2c(cc3occc32)c1=O (centres unmarked) | -27.7%
72 | NS(=O)(=O)c1ccc(CCN=C(NS(=O)(=O)c2cccs2)c2ccccc2)cc1 | 11.8%
73 | COC(CNC(=O)CCc1c(C)nc2c(-c3ccc(F)cc3)c(C)nn2c1C)OC | -21.8%
74 | CC(OC(=O)CN(C)S(=O)(=O)c1ccc(Cl)cc1)C(=O)Nc1ncc(Cl)cc1Cl (centres unmarked) | -13.5%
75 | CCC(Sc1nc2ccccc2c(=O)n1CC1CCCO1)C(=O)NCc1cccnc1 (centres unmarked) | -23.5%
76 | COCCNC(=S)N(CCc1c(C)[nH]c2ccc(F)cc12)Cc1ccco1 | -7.74%
77 | Cc1cccc(N2CCN(C(=O)c3ccc(Cl)c(S(=O)(=O)NCc4ccco4)c3)CC2)c1C | 4.75%
78 | Cc1cc(C)c2c(N)c(C(=O)NN3CC(=O)N(c4ccccc4)CC3=O)sc2n1 | -0.929%
79 | COc1ccc(C(=O)Nc2ccccc2NC(=O)c2ccc(OC)cc2)cc1 | -5.58%
80 | C=C1SC(=Nc2ccccc2Cl)N(C(=O)c2sc3ccccc3c2Cl)C12CCCCC2 | 12.3%
81 | Cc1c(C(=O)N2CCN(c3ccccn3)CC2)sc2ncnc(N3CCOCC3)c12 | -59%
82 | CSc1nsc(SCC(=O)Nc2ccc(F)cc2)n1 | -3.68%
83 | Cc1cc(/C=C2/C(=N)N3C(=NC2=O)SN=C3S(C)(=O)=O)c(C)n1-c1ccccc1 | 0.917%
84 | CCC(=O)n1nc(-c2ccc(OC)cc2)nc1SC | 21.7%
85 | Cc1cc(C(=O)NC2CCCCC2)on1 | 7.79%
86 | Brc1cccc(CNc2nc3ccccc3n2CCN2CCOCC2)c1 | -76.3%
87 | C=CCNc1nc2ccccc2nc1NS(=O)(=O)c1ccc(F)cc1 | 5.87%
88 | COc1cccc(-c2cc(C(=O)N/N=C/c3cccc(OC)c3OC)c3ccccc3n2)c1 | 0.29%
89 | COc1cc(C(=O)NNC(=O)c2ccccc2Br)ccc1OCC(=O)N1CCOCC1 | 18.5%
